In PubChem BioAssay AID493208 (National Center for Advancing Translational Sciences (NCATS), 2011):
Screen size: about 44,000 compounds; about 340 (0.77%) were called active. Roughly 5% stayed inconclusive and do not appear here. Calls follow the shape of the dose curve; as a rule, active = well fitted inhibition curve with a large enough effect; inconclusive = small, poorly fitted or top-dose-only effect; inactive = flat fitted curve, though single readings scatter. Some of the results follow.

test: Acumen qHTS Assay for Inhibitors of the mTORC1 Signaling Pathway in MEF (Tsc2-/-, p53-/-) Cells: Sytravon; settings: phospho-rpS6 immunofluorescence/PI, 24 h; series mostly up to 38.3 µM; activity change, negative = inhibition: at the top concentration;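 also: plate controls were DMSO for no effect and rapamycin for full effect; nearly all actives have a fitted effect of over 50% in size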
Outline: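 Tsc2-/-, p53-/- mouse embryonic fibroblasts (empty-vector line) exposed to compound 24 hrs at 37 C, fixed, immunostained for phospho-rpS6 and counterstained with propidium iodide. Acumen laser scanning gives % positive cells from Alexa 488/PI ratio, thresholded using 7.5 nM rapamycin; PI count gives viability.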

Activity change, negative = inhibition, inactive:
CCN(CC)c1ccc(C2Nc3ccccc3-c3cc(C)nn32)cc1 (stereo not given) 0.607%
CCCCN(CCCNC(=O)c1cc(Nc2ccccc2OC)nc2ccccc12)c1ccccc1 -14.4%
COc1ccc(C2(CNC(=O)C(=O)Nc3ccccc3C)CCCC2)cc1OC -11%
Cc1ccc(OCCCn2c(-c3ccc(Cl)cc3)nc3ccccc3c2=O)c(C)c1 1.57%
Cc1ccc(NC(=O)C2CCCN(S(=O)(=O)c3c(C)noc3C)C2)cc1 (stereo not given) -3.24%
Clc1ccc(-n2c(Cc3ccccc3)nnc2SCc2nc(-c3cccs3)no2)cc1 -1.19%
Cc1cccc(-n2c(=O)c3c4c(sc3n3c(C)nnc23)CCCC4)c1 -1.16%
COc1ccc(NC(=O)c2oc3ccccc3c2NC(=O)C2CCCCC2)c(OC)c1 -0.402%
Nc1c(C(=O)Nc2ccccc2)sc2nc3c(cc12)CN(Cc1ccccc1)CC3 -12%
CCOc1cc(C#N)c(-n2nnc3c(sc4nc(C)cc(C)c43)c2=O)cc1OCC 7.07%
CCCCN(C)C(=O)c1ccc2c(c1)N(Cc1cccc(F)c1)C(=O)c1ccccc1S2 -8.39%
CCOC(=O)c1scc(-c2ccc(C)cc2)c1S(=O)(=O)Nc1cc(OC)ccc1OC -2.22%
Cc1cc(C)c(/C=C/c2onc(C)c2S(=O)(=O)N2CCC(C(=O)NCCc3ccccc3)CC2)c(C)c1 -0.732%
COC(=O)c1ccc(NC(=O)Cn2cnc3c2c(=O)n(C)c(=O)n3C)cc1 -3.37%
Cc1cccc(N(CC(=O)NCCSCc2ccccc2)S(=O)(=O)c2ccccc2)c1C -13.8%
CCc1cccc(C)c1NC(=O)C1CCCN1S(=O)(=O)c1cccc2nsnc12 (stereo not given) 1.76%
Cc1ccc(C(=O)c2cn(Cc3ccccc3)c3nc(C)ccc3c2=O)cc1 -2.5%
Cc1nc(N2CCCC2)c2c(C(=O)N3CCN(c4cc(Cl)ccc4C)CC3)c(C)oc2n1 -4.57%
CCn1c(=O)c(=O)n(CC)c2cc(S(=O)(=O)Nc3ccc(C)cc3)ccc21 -0.261%
CCCC(=O)N1CCN(c2nc3ccc(F)cc3s2)CC1 -5.19%
COc1cc(OC)c(NC(=O)c2cc3c(=O)oc4ccc(C)cc4c3s2)cc1Cl -1.15%
Cc1ccc(-n2ncc3c(NCCO)ncnc32)cc1Cl 9.15%
Cc1cc(NC(=O)c2cc(-c3ccc(Cl)cc3)on2)n(-c2ccccc2)n1 -13%
COc1ccc(CNC(=O)Cc2ccc(NC(=O)N3CCSc4ncccc43)cc2)cc1OC -4.01%
COC(=O)c1cc2oc3ccccc3c2n1CC(=O)Nc1ccc(C)c(F)c1 -3.18%
COc1ccc(-c2cc(C(=O)Nc3cccnc3)no2)cc1OC -0.149%
COc1cc(NC(=O)c2ccc3oc(=O)c(S(=O)(=O)c4ccccc4)cc3c2)cc(OC)c1 -2.8%
COc1ccc(S(=O)(=O)Nc2cccc(-c3ccc(N4CCC(C)CC4)nn3)c2)c(OC)c1 0.603%
CCOc1ccc(NC(=O)Cn2c(=O)n(-c3cccc(Cl)c3)c(=O)c3c2c2cc(C)ccc2n3C)cc1 0%
CCOc1cccc(C2c3[nH]c4ccccc4c3CCN2C(=O)CSc2ccccc2)c1 (stereo not given) -25.5%
Cc1cccc(C(=O)N2CCc3cc(CNC(=O)COc4ccc(Cl)cc4)ccc32)c1 -12.5%
CC(C)c1ccc(NC(=O)C2CCN(S(=O)(=O)c3cccc4nonc34)CC2)cc1 -27.5%
Cc1ccccc1Nc1c(-c2ccc(Cl)cc2)nc2c(C)cccn12 -9.2%
Cc1ccc(N2C(=O)CSC23C(=O)N(Cc2ccccc2F)c2ccccc23)cc1F (stereo not given) -3.28%
COc1ccc(NC(=O)Cn2c(=O)n(CCc3ccccc3)c(=O)c3c4c(sc32)CCCC4)cc1 2.53%
Cc1ccccc1NC(=O)CSc1cn(CC(=O)N2CCCCCC2)c2ccccc12 2.19%
Cc1nc(SCC(=O)Nc2ccccc2C)cc(-c2ccccc2)n1 2.81%
COc1cc2c(=O)c(C(=O)c3ccc(C)c(C)c3)cn(Cc3ccc(F)cc3)c2cc1OC -6.35%
CCOc1ccccc1NC(=O)c1ccc2c(c1)CCN2S(=O)(=O)c1ccc(C)cc1 1.86%
CCOC(=O)c1c(C)[nH]c(C)c1S(=O)(=O)NCC(=O)Nc1ccc(C)c(N(C)C)c1 -4.65%
CCOc1cc(CNC(=O)Cn2c(=O)c3cccn3c3ccc(F)cc32)cc(OCC)c1OCC 8.45%
CCSc1nnc2c(n1)OC(c1cc(OC)c(OC)c(OC)c1)Nc1ccccc1-2 (stereo not given) -9.21%
CCC(CC)c1nn2c(=O)cc(COc3ccc(NC(=O)c4ccccc4C)cc3)nc2s1 6.85%
COc1cc(NS(=O)(=O)c2ccc(NC(=O)c3cccc(F)c3)cc2)nc(OC)n1 8.49%
CCC1CN(S(=O)(=O)c2cc(-c3cc(C)no3)ccc2C)c2cc(Cl)ccc2O1 (stereo not given) -7.66%
COc1cc(NC(=O)CC2C(=O)OCCN2Cc2ccccc2)cc(OC)c1 (stereo not given) -14.6%
Cc1ccccc1NC(=O)c1ccc2[nH]c(C)c(C)c2c1 -3.14%
COc1cccc(Cn2c(=O)cc(C)c3c(C)nn(C)c32)c1 -9.96%
CCCc1nn2c(=O)cc(COC(=O)c3cccc(NC(=O)c4cccs4)c3)nc2s1 9.15%
CCc1cccc(C)c1NC(=O)CCS(=O)(=O)c1cc(Br)cc2c1N(C(=O)C1CC1)CC2 1.34%
Cc1c(Cl)cccc1NC(=O)Cn1c(=O)n(Cc2ccco2)c(=O)c2sc3ccccc3c21 -9.94%
Cc1c(C(=O)NCc2ccc(Cl)cc2)sc2nc3n(c(=O)c12)CCCCC3 5.88%
COc1ccc(S(=O)Cc2ccc(C(=O)N3CCN(c4cccc(C)c4C)CC3)o2)cc1 (stereo not given) -28.3%
O=C(Nc1ccc(C(=O)OCc2cc(=O)n3c4c(sc3n2)CCCC4)cc1)c1ccc(F)cc1 2.07%
O=C(CCCCn1c(=O)c2ccccc2n(CC(=O)Nc2cccc(C(F)(F)F)c2)c1=O)NCc1ccc2c(c1)OCO2 -10.7%
CCc1nn2c(-c3ccccc3OC)ccnc2c1-c1ccccc1 14.2%
Cc1ccccc1NC(=O)c1ccc(F)c(S(=O)(=O)N2CCN(c3ccccc3F)CC2)c1 -0.649%
COc1ccc(-c2nc(CSc3nncn4c3cc3oc(C)cc34)c(C)o2)cc1 -1.59%
Cc1ccc(Cl)cc1NC(=O)COC(=O)CC(C)(C)CC1=NS(=O)(=O)c2ccccc2N1 -19%
O=C(NCCc1ccccc1)C(=O)NCC(c1ccco1)S(=O)(=O)c1cccs1 (stereo not given) -6.05%
